This is an account of results in the supplement of paper PMC8728848.

What all share (assay): glycan array binding signal (z-score within array); higher = stronger binding
Holding throughout (conditions): glycan notation: IUPAC condensed, linker removed

The target of assay [1] is Gal(b1-4)GlcNAc(b1-2)Man(a1-3)[Gal(b1-4)GlcNAc(b1-2)Man(a1-6)]Man(b1-4)GlcNAc(b1-4)GlcNAc. The method, boiled down:
(§1)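 Columns mapping to the same glycan were averaged after glycan names were converted to IUPAC-condensed notation. The data come from 3228 arrays in the Consortium for Functional Glycomics database, limited to those with an available protein sequence. Binding is reported as a within-array Z-score averaged across arrays of one protein sequence and across linkers.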

In assay [2] the target is Gal(b1-4)GlcNAc(b1-2)Man(a1-3)[Gal(b1-4)GlcNAc(b1-2)Man(a1-6)]Man(b1-4)GlcNAc(b1-4)[Fuc(a1-6)]GlcNAc. An outline of the steps: as §1
The target of assay [3] is Gal(b1-4)GlcNAc(b1-2)Man(a1-3)[Gal(b1-4)GlcNAc(b1-2)Man(a1-6)][Gal(b1-4)GlcNAc(b1-4)]Man(b1-4)GlcNAc(b1-4)[Fuc(a1-6)]GlcNAc. An outline of the steps:
as §1

Assay [4] addresses Gal(b1-4)GlcNAc(b1-2)Man(a1-3)[Gal(b1-4)GlcNAc(b1-2)Man(a1-6)][GlcNAc(b1-4)]Man(b1-4)GlcNAc(b1-4)[Fuc(a1-6)]GlcNAc. The method, boiled down:
as §1

For assay [5], the target named is Gal(b1-4)GlcNAc(b1-2)Man(a1-3)[GlcNAc(b1-2)Man(a1-6)]Man(b1-4)GlcNAc(b1-4)GlcNAc. An outline of the steps: as §1
Assay [6] concerns the target Gal(b1-4)GlcNAc(b1-2)Man(a1-3)[GlcNAc(b1-4)][Gal(b1-4)GlcNAc(b1-2)Man(a1-6)]Man(b1-4)GlcNAc(b1-4)GlcNAc. An outline of the steps: as §1
The target of assay [7] is Gal(b1-4)GlcNAc(b1-2)Man(a1-3)[Man(a1-6)]Man(b1-4)GlcNAc(b1-4)GlcNAc. The method, boiled down: as §1
For assay [8], the target named is Gal(b1-4)GlcNAc(b1-2)Man(a1-6)Man(b1-4)GlcNAc(b1-4)GlcNAc. An outline of the steps: as §1
Assay [9] addresses Gal(b1-4)GlcNAc(b1-2)Man(a1-6)[GlcNAc(b1-2)Man(a1-3)]Man(b1-4)GlcNAc(b1-4)GlcNAc. The method, boiled down: as §1
Assay [10] deals with Gal(b1-4)GlcNAc(b1-2)Man(a1-6)[Man(a1-3)]Man(b1-4)GlcNAc(b1-4)GlcNAc. An outline of the steps: as §1
Assay [11] deals with Gal(b1-4)GlcNAc(b1-2)[Gal(b1-4)GlcNAc(b1-4)]Man(a1-3)[Gal(b1-4)GlcNAc(b1-2)Man(a1-6)]Man(b1-4)GlcNAc(b1-4)GlcNAc. An outline of the steps:
as §1

The target in assay [12] is Gal(b1-4)GlcNAc(b1-2)[Gal(b1-4)GlcNAc(b1-4)]Man(a1-3)[Gal(b1-4)GlcNAc(b1-2)[Gal(b1-4)GlcNAc(b1-6)]Man(a1-6)]Man(b1-4)GlcNAc(b1-4)GlcNAc. An outline of the steps: as §1
The target of assay [13] is Gal(b1-4)GlcNAc(b1-2)[Gal(b1-4)GlcNAc(b1-4)]Man(a1-3)[GlcNAc(b1-4)][Gal(b1-4)GlcNAc(b1-2)Man(a1-6)]Man(b1-4)GlcNAc(b1-4)GlcNAc. The method, boiled down: as §1
The target of assay [14] is Gal(b1-4)GlcNAc(b1-2)[Gal(b1-4)GlcNAc(b1-4)]Man(a1-3)[GlcNAc(b1-4)][Gal(b1-4)GlcNAc(b1-2)[Gal(b1-4)GlcNAc(b1-6)]Man(a1-6)]Man(b1-4)GlcNAc(b1-4)GlcNAc. The method, boiled down:
as §1

Assay [15] has as its target Gal(b1-4)GlcNAc(b1-2)[Gal(b1-4)GlcNAc(b1-6)]Man(a1-6)[Gal(b1-4)GlcNAc(b1-2)Man(a1-3)]Man(b1-4)GlcNAc(b1-4)GlcNAc. An outline of the steps: as §1
Assay [16] deals with Gal(b1-4)GlcNAc(b1-2)[Gal(b1-4)GlcNAc(b1-6)]Man(a1-6)[Gal(b1-4)GlcNAc(b1-2)Man(a1-3)]Man(b1-4)GlcNAc(b1-4)[Fuc(a1-6)]GlcNAc. An outline of the steps: as §1
Assay [17] concerns the target Gal(b1-4)GlcNAc(b1-2)[Gal(b1-4)GlcNAc(b1-6)]Man(a1-6)[GlcNAc(b1-4)][Gal(b1-4)GlcNAc(b1-2)Man(a1-3)]Man(b1-4)GlcNAc(b1-4)GlcNAc. An outline of the steps:
as §1

In assay [18] the target is Gal(b1-4)GlcNAc(b1-2)[Gal(b1-4)GlcNAc(b1-6)]Man(a1-6)[GlcNAc(b1-4)][Gal(b1-4)GlcNAc(b1-2)[Gal(b1-4)GlcNAc(b1-4)]Man(a1-3)]Man(b1-4)GlcNAc(b1-4)[Fuc(a1-6)]GlcNAc. An outline of the steps:
as §1

Assay [19] concerns the target Gal(b1-4)GlcNAc(b1-3)Gal(b1-3)GalNAc. The method, boiled down: as §1

Some of the results follow.

B1: SP16664B-bot-474-25-474 (Bacteroides ovatus) (protein)
chain: CEEDIEIGNKIDESSYLASTQLSGLLLDENTNKNSSVIELRNNEYSTNVVFRLSKLPQKGVDVQIAVEESYAAIYNTIHETDFEVFPAANVKIANNGTFVLAPDDKVTPSVKVTLTAFDGMEEDKTYIVPLTVTSSTEGVTFTETSKHMVLLVQDYRNKPNTNKGEDAVQTVLYFEVNDTNPLNALEFLTESGKYFFDHIVLFAANINWDPEKQRVYLANNENVQFLLDNNDKYLQPLRKAGMKIIISILGNHDEAGVAQLSDMGAREFARELAAYCRAYNLDGVAFDDEYSNSPDLSNPWLASPSAYAGSRLMYECKAVMPEKIVSLYNLGNMYSSSLQVIDGIEPGQYCDYAVADYGGAAGPGTGMTLKQCAGMSIELRRGSGNSSESTARSRKEAGYGYYMFFALDPSLYGSQVYRCQSVCKGLYDETLVYPSYYYKKNSTEREAIN
For the molecule B1, the “glycan array binding signal (z-score)” value in assay [1] was -0.21; in [2] it was 0.12; in [3], -0.39; in assay [4] it was -0.582; in assay [5], -0.201; in [6] it was -0.379. For the same molecule, the “glycan array binding signal (z-score)” value is -0.019 in assay [7]; -0.486 in [8]; -0.164 in assay [9]; -0.21 in [10]; -0.452 in assay [11]; 0.559 in assay [12]. Moreover, the “glycan array binding signal (z-score)” value in assay [13] was -0.357; in assay [14], 0.296; in [15], -0.037; in [16], -0.218; in [17], -0.012; in assay [18] it was 0.497. For the same molecule, the “glycan array binding signal (z-score)” value in [19] was -0.153.
